The source of these data is a collection of fitness landscapes (doi:10.1126/science.1257360).

This is one part of the list. Where only a bound is given, the exact number is not on record here.

B1: PhoQ; a variant is named by its letters at X, in order, P23837 (parent)
chain: MKKLLRLFFPLSLRVRFLLATAAVVLVLSLAYGMVALIGYSVSFDKTTFRLLRGESNLFYTLAKWENNKLHVELPENIDKQSPTMTLIYDENGQLLWAQRDVPWLMKMIQPDWLKSNGFHEIEADVNDTSLLLSGDHSIQQQLQEVREDDDDAEMTHSVAVNVYPATSRMPKLTIVVVDTIPVELKSSYMVWSWFIYVLSANLLLVIPLLWVAAWWSLRPIEALAKEVRELEEHNRELLNPATTRELTSLVRNLNRLLKSERERYDKYRTTLTDLTHSLKTPLXXLQXXLRSLRSEKMSVSDAEPVMLEQISRISQQIGYYLHRASMRGGTLLSRELHPVAPLLDNLTSALNKVYQRKGVNISLDISPEISFVGEQNDFVEVMGNVLDNACKYCLEFVEISARQTDEHLYIVVEDDGPGIPLSKREVIFDRGQRVDTLRPGQGVGLAVAREITEQYEGKIVAGESMLGGARMEVIFGRQHSAPKDE

The variants in the test derive from B1. Kind of test: enrichment ratio after two sorts for PhoP signalling (ratio (wild type AVST 3.29)); higher = more functional. Particulars: with PhoP (E. coli).
As for HMLL, the enrichment ratio is no more than 0.25.

Turning to LLLN, the enrichment ratio was no more than 0.25.

On to WDIH, for which the enrichment ratio is no more than 0.25.

Consider LGSK, for which the enrichment ratio is no more than 0.25.

For EKGN, the enrichment ratio was no more than 0.25.

In the case of GTHY, the enrichment ratio was no more than 0.25.

In the case of NPRK, the enrichment ratio is no more than 0.25.

Take HWDY: the enrichment ratio was no more than 0.25.

Regarding YEYI, the enrichment ratio is no more than 0.25.

As for FMMY, the enrichment ratio was no more than 0.25.

As to VYHM, the enrichment ratio was no more than 0.25.

As for GPHK, the enrichment ratio was no more than 0.25.

For KAKS, the enrichment ratio is no more than 0.25.

For the variant HHFY, the enrichment ratio is no more than 0.25.

As for NCTV, the enrichment ratio was no more than 0.25.

As for SVAN, the enrichment ratio was determined as 6.73.

As to PFMG, the enrichment ratio is no more than 0.25.

For YSKR, the enrichment ratio was no more than 0.25.

As to AMHH, the enrichment ratio was no more than 0.25.

Turning to YWCS, the enrichment ratio is no more than 0.25.

In the case of VSRA, the enrichment ratio is no more than 0.25.

For the variant NANH, the enrichment ratio is no more than 0.25.

Consider RECG, for which the enrichment ratio is no more than 0.25.

For KVDC, the enrichment ratio is no more than 0.25.

For the variant YLPH, the enrichment ratio is no more than 0.25.

Turning to HPHI, the enrichment ratio is no more than 0.25.

Take SFEY: the enrichment ratio is no more than 0.25.

For the variant FVPS, the enrichment ratio was no more than 0.25.

Take TLNQ: the enrichment ratio was no more than 0.25.

As for VFTS, the enrichment ratio was no more than 0.25.

Turning to MLLS, the enrichment ratio is no more than 0.25.

As for IECW, the enrichment ratio was no more than 0.25.

As for DWYD, the enrichment ratio was no more than 0.25.

Take CVIP: the enrichment ratio is no more than 0.25.

Take DPPD: the enrichment ratio is no more than 0.25.

PHFI: the enrichment ratio is no more than 0.25.

Regarding NSRV, the enrichment ratio was no more than 0.25.

Turning to VWLC, the enrichment ratio is no more than 0.25.

On to NPPV, for which the enrichment ratio was no more than 0.25.

With AAAV, the enrichment ratio is no more than 0.25.

For the variant QQAC, the enrichment ratio is no more than 0.25.

On to EMYY, for which the enrichment ratio was no more than 0.25.

Regarding YKIQ, the enrichment ratio is no more than 0.25.

For REQV, the enrichment ratio is no more than 0.25.

For HYPY, the enrichment ratio is no more than 0.25.

On to NIQN, for which the enrichment ratio was no more than 0.25.

With AFML, the enrichment ratio is no more than 0.25.

For the variant EIWD, the enrichment ratio was no more than 0.25.

Take PSLN: the enrichment ratio is no more than 0.25.

Turning to GFIP, the enrichment ratio is no more than 0.25.

Turning to VCMN, the enrichment ratio came to 2.35.

For the variant HAPW, the enrichment ratio was 0.597.

Regarding VCWR, the enrichment ratio is no more than 0.25.

Consider IVHG, for which the enrichment ratio was no more than 0.25.

On to QAFW, for which the enrichment ratio was found to be 1.15.

For the variant NSDI, the enrichment ratio was no more than 0.25.

EHMF: the enrichment ratio was no more than 0.25.

Take TANG: the enrichment ratio was 8.2.

Consider TASD, for which the enrichment ratio worked out at 0.376.

For the variant IFSI, the enrichment ratio is no more than 0.25.

For AGLF, the enrichment ratio worked out at 11.1.

As to LVHH, the enrichment ratio is no more than 0.25.

In the case of QFKK, the enrichment ratio is no more than 0.25.

Regarding RGPN, the enrichment ratio was no more than 0.25.

As to RFVT, the enrichment ratio is no more than 0.25.

With ERNA, the enrichment ratio was no more than 0.25.

For the variant RQIV, the enrichment ratio was no more than 0.25.

As for VWYR, the enrichment ratio was no more than 0.25.

Take VPCQ: the enrichment ratio was no more than 0.25.

Regarding LFDK, the enrichment ratio is no more than 0.25.

For the variant STKD, the enrichment ratio is no more than 0.25.

Regarding SCEE, the enrichment ratio was no more than 0.25.

Regarding YNWW, the enrichment ratio is no more than 0.25.

Take PYKN: the enrichment ratio is no more than 0.25.

In the case of HEKK, the enrichment ratio is no more than 0.25.

On to IISE, for which the enrichment ratio was no more than 0.25.

In the case of LDEY, the enrichment ratio is no more than 0.25.

Regarding LSEL, the enrichment ratio is no more than 0.25.

Turning to AGRV, the enrichment ratio is no more than 0.25.

NKHV: the enrichment ratio was no more than 0.25.

Take HLLR: the enrichment ratio was no more than 0.25.

Consider MYWE, for which the enrichment ratio was no more than 0.25.

On to FRHF, for which the enrichment ratio was no more than 0.25.

Regarding AMQD, the enrichment ratio is no more than 0.25.

As for VRES, the enrichment ratio is no more than 0.25.

Take NMHM: the enrichment ratio was no more than 0.25.

LRLQ: the enrichment ratio was no more than 0.25.

Regarding SFIW, the enrichment ratio was no more than 0.25.

On to YWRY, for which the enrichment ratio is no more than 0.25.

For the variant VPKM, the enrichment ratio is no more than 0.25.

For the variant GKQH, the enrichment ratio is no more than 0.25.

On to PPMW, for which the enrichment ratio is no more than 0.25.

Consider MENW, for which the enrichment ratio was no more than 0.25.

Consider DAFP, for which the enrichment ratio was no more than 0.25.

ILRH: the enrichment ratio is no more than 0.25.

For VTQL, the enrichment ratio is no more than 0.25.

With GFNI, the enrichment ratio is no more than 0.25.

Regarding TCMM, the enrichment ratio was determined as 11.8.

As to TDAF, the enrichment ratio was no more than 0.25.

Consider VPNY, for which the enrichment ratio was no more than 0.25.

Take ASFW: the enrichment ratio was no more than 0.25.

As to NLKC, the enrichment ratio is no more than 0.25.

As for EDPM, the enrichment ratio was no more than 0.25.

On to TMAN, for which the enrichment ratio worked out at 18.9.

Regarding EVSW, the enrichment ratio is no more than 0.25.

For FITA, the enrichment ratio is no more than 0.25.

With TSGT, the enrichment ratio came to 9.89.

With KGWM, the enrichment ratio was no more than 0.25.

MTHK: the enrichment ratio is no more than 0.25.

As for PWGK, the enrichment ratio is no more than 0.25.

As to LIRV, the enrichment ratio was no more than 0.25.

On to YPRE, for which the enrichment ratio is no more than 0.25.

As to GKTS, the enrichment ratio is no more than 0.25.

Consider NPVH, for which the enrichment ratio is no more than 0.25.

MSRM: the enrichment ratio is no more than 0.25.

For PAHH, the enrichment ratio is no more than 0.25.

For the variant WQPC, the enrichment ratio is no more than 0.25.

For the variant HCDD, the enrichment ratio was no more than 0.25.

Regarding NVDM, the enrichment ratio is no more than 0.25.

Take FINR: the enrichment ratio is no more than 0.25.

With NDYF, the enrichment ratio is no more than 0.25.

QEAH: the enrichment ratio was no more than 0.25.

PTDP: the enrichment ratio was no more than 0.25.

As to QSHN, the enrichment ratio was no more than 0.25.

Consider SIMK, for which the enrichment ratio was 28.9.

Regarding AYPP, the enrichment ratio was no more than 0.25.

EEAD: the enrichment ratio was no more than 0.25.

For LTAP, the enrichment ratio was no more than 0.25.

FADW: the enrichment ratio was no more than 0.25.

As for TPPS, the enrichment ratio was no more than 0.25.

Take STQE: the enrichment ratio was no more than 0.25.

For the variant FTCA, the enrichment ratio is no more than 0.25.

As to QYGG, the enrichment ratio is no more than 0.25.

Regarding YGFT, the enrichment ratio was no more than 0.25.

For the variant HWRI, the enrichment ratio is no more than 0.25.

Turning to KQVP, the enrichment ratio is no more than 0.25.

In the case of LLVW, the enrichment ratio is no more than 0.25.

In the case of NMDQ, the enrichment ratio was no more than 0.25.

For AQSM, the enrichment ratio worked out at 10.4.

For MMPT, the enrichment ratio was no more than 0.25.

As to IRYR, the enrichment ratio was no more than 0.25.

Take AFSD: the enrichment ratio is no more than 0.25.

With VTPF, the enrichment ratio was no more than 0.25.

Consider YKDS, for which the enrichment ratio was no more than 0.25.

Turning to VYHQ, the enrichment ratio was no more than 0.25.

For KLVG, the enrichment ratio is no more than 0.25.

Take HWND: the enrichment ratio was no more than 0.25.

With QHFG, the enrichment ratio came to 1.55.

As for QSFY, the enrichment ratio is 10.

Consider ELCV, for which the enrichment ratio was no more than 0.25.

Regarding GYQN, the enrichment ratio was no more than 0.25.

For the variant YFLY, the enrichment ratio is no more than 0.25.

Regarding IPVK, the enrichment ratio was no more than 0.25.

As for APVS, the enrichment ratio was no more than 0.25.

Regarding LDPV, the enrichment ratio was no more than 0.25.

IENR: the enrichment ratio is no more than 0.25.

In the case of ATEF, the enrichment ratio is no more than 0.25.

Consider FWRQ, for which the enrichment ratio was no more than 0.25.

KSDP: the enrichment ratio is no more than 0.25.

As for AKKL, the enrichment ratio is no more than 0.25.

As for MTTK, the enrichment ratio was no more than 0.25.

For the variant WLKW, the enrichment ratio was no more than 0.25.

In the case of FCCT, the enrichment ratio is no more than 0.25.

Turning to QETL, the enrichment ratio was no more than 0.25.

For RRRK, the enrichment ratio was no more than 0.25.

For RKYD, the enrichment ratio was no more than 0.25.

In the case of VPPM, the enrichment ratio is no more than 0.25.

Regarding RMMD, the enrichment ratio is no more than 0.25.

Turning to SQEV, the enrichment ratio was no more than 0.25.

KMWK: the enrichment ratio is no more than 0.25.

Take EIIG: the enrichment ratio is no more than 0.25.

HWQK: the enrichment ratio is no more than 0.25.

Turning to VATS, the enrichment ratio is no more than 0.25.

Regarding GIRV, the enrichment ratio was no more than 0.25.

With ENDG, the enrichment ratio is no more than 0.25.

SNAS: the enrichment ratio turned out to be 8.84.

Take STNG: the enrichment ratio turned out to be 10.8.

CKAF: the enrichment ratio is no more than 0.25.

Take QTAI: the enrichment ratio was no more than 0.25.

For the variant ILGW, the enrichment ratio was no more than 0.25.

On to AVKP, for which the enrichment ratio is no more than 0.25.

Turning to WMHM, the enrichment ratio was no more than 0.25.

Take HGDR: the enrichment ratio is no more than 0.25.

Take DTDY: the enrichment ratio was no more than 0.25.

In the case of KDWV, the enrichment ratio was no more than 0.25.

With GMMP, the enrichment ratio was no more than 0.25.

In the case of HWRN, the enrichment ratio is no more than 0.25.

For QYRR, the enrichment ratio is no more than 0.25.

Take TDHL: the enrichment ratio was no more than 0.25.

Take KELE: the enrichment ratio is no more than 0.25.

Take FNKM: the enrichment ratio is no more than 0.25.

As to KLEH, the enrichment ratio was no more than 0.25.

IQVK: the enrichment ratio was no more than 0.25.

On to HSWV, for which the enrichment ratio was no more than 0.25.

Consider LVIH, for which the enrichment ratio is no more than 0.25.
